Test results from PubChem BioAssay (Tox21).
“And” between values parts separate entries of the source, which are not always exact repeats. Equal values may be shown once. The inconclusive results got no clear call from the source; some entries with a clear call stand among them for comparison. Potencies of inconclusive entries are doubtful fits and often do not repeat. Where a structure was tested more than once in an assay, its records may differ in their call. The source made the active and inactive calls. Calls follow the shape of the dose curve; as a rule, active = well fitted curve in the direction sought with a large enough effect in the repeat runs; inconclusive = weak or mixed curves; inactive = no such curve, though single readings can be large; an effect the other way counts as inactive or inconclusive.

experiment: A CellTox Green Cytotoxicity Assay to monitor cytotoxicity in HEK293 cells - 8 hour (AID 1224884); conditions: CellTox Green fluorescence; series mostly up to 76.8 µM; cytotoxicity increase: at the top concentration; also: nearly all actives have a fitted effect of over 35% in size
In short: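 Nonlytic real-time cytotoxicity: HEK293 + CellTox Green reagent plated, 5 h preincubation, pintool compound addition (23 nL in DMSO), 37 C for 40 h, fluorescence measured at successive time points.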
% is scaled to controls: 0 for no effect and ±100 for the full control effect; potency is read from the fitted curve at half-maximal effect; tags tell the direction and shape of the fitted curve.

Question: For `CCN(CC)CCCC(C)Nc1c2ccc(Cl)cc2nc2ccc(OC)cc12` (centres undefined), which Potency is on record?
Answer: inconclusive: 26.8 µM [activator, single point]

Question: Which Potency does the source give for `CC1(C)O[C@@H]2C[C@H]3[C@@H]4C[C@H](F)C5=CC(=O)CC[C@]5(C)[C@H]4[C@@H](O)C[C@]3(C)[C@]2(C(=O)CO)O1` here?
Answer: inconclusive: 34.7 µM [activator, partial curve]

Question: For `CCCCCCCCC`, which Potency is on record?
Answer: inconclusive: 1.78 µM [activator, partial curve]

Question: Which “cytotoxicity increase” value does the source give for `CCC(=O)c1ccc2c(c1)N(CCCN(C)C)c1ccccc1S2` here?
Answer: inactive: 0.239% [at 35.3 µM]

Question: For `NS(=O)(=O)c1cc(C(=O)O)c(NCc2ccco2)cc1Cl`, which Potency is on record?
Answer: inconclusive: 39.1 µM [activator, partial curve, poor fit]

Question: For `CC(C)OC(=O)c1cc2c(OCC(O)CNC(C)(C)C)cccc2[nH]1` (centres undefined), which Potency is on record?
Answer: inconclusive: 26.8 µM [activator, single point]

Question: For `CCCCOC(=O)c1ccc(O)cc1`, which Potency is on record?
Answer: inconclusive: 54.9 µM [activator, single point]

Question: With `CC1C2CC(CC2C2CCCC(O)C2)C1(C)C` (centres undefined) as the compound, how does the Potency read?
Answer: active: 43.6 µM

Question: For `O=C1c2ccccc2C(=O)C1c1nc2ccccc2c(Br)c1O`, which Potency is on record?
Answer: inconclusive: 27.5 µM [activator, partial curve]

Question: Which Potency does the source give for `CN(C)CC/C=C1\c2ccccc2Sc2ccc(Cl)cc21` here?
Answer: inconclusive: 26.8 µM [activator, single point]

Question: Which Potency does the source give for `CC(C)n1c(/C=C/[C@@H](O)C[C@@H](O)CC(=O)O)c(-c2ccc(F)cc2)c2ccccc21` here?
Answer: inconclusive: 10.7 µM [activator, single point]

Question: With `O=c1[nH]cnc2c1ncn2[C@H]1CC[C@@H](CO)O1` as the compound, how does the Potency read?
Answer: inconclusive: 26.8 µM [activator, single point]

Question: With `CCCCCc1ccc(O)cc1` as the compound, how does the Potency read?
Answer: inconclusive: 49 µM [activator, single point]

Question: For `CC1=Nc2ccc3ccccc3c2C1(C)C`, which Potency is on record?
Answer: inconclusive: 38.9 µM [activator, partial curve]

Question: Which Potency does the source give for `NC(=O)C(c1ccccc1)(c1ccccc1)[C@@H]1CCN(CCc2ccc3c(c2)CCO3)C1` here?
Answer: active: 21.3 µM

experiment: qHTS RealTime-Glo MT Cell Viability Assay in HepG2 cells - 16 hour (AID 1224885); conditions: RealTime-Glo luminescence; series mostly up to 76.8 µM; activity change, negative = cytotoxic: at the top concentration; also: nearly all actives have a fitted effect of over 50% in size
In short: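 Cell number in HepG2 cultures estimated from NanoLuc luminescence generated by metabolic reduction of a prosubstrate by living cells. The homogeneous, nonlytic format allowed repeated reads at 0, 8, 16, 24, 32 and 40 h of compound exposure.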

Question: Which Potency does the source give for `CCCCCC(C)OC(=O)COc1ccc(Cl)c2cccnc12` (centres undefined) here?
Answer: inconclusive: 54.9 µM [cytotoxic, partial curve, poor fit]

Question: Which Potency does the source give for `COC(=O)C1=C(C)NC(C)=C(C(=O)OC(C)(C)CN(C)CCC(c2ccccc2)c2ccccc2)C1c1cccc([N+](=O)[O-])c1` (centres undefined) here?
Answer: inconclusive: 21.3 µM [cytotoxic, partial curve]

Question: With `c1csc(SSc2cccs2)c1` as the compound, how does the Potency read?
Answer: inconclusive: 54.9 µM [cytotoxic, single point]

Question: For `COc1cc2ncnc(Nc3ccc(F)c(Cl)c3)c2cc1OCCCN1CCOCC1`, which Potency is on record?
Answer: inconclusive: 23.9 µM [cytotoxic, partial curve]

Question: With `CC1=CC[C@H]2C[C@@H]1C2(C)C` as the compound, how does the Potency read?
Answer: inactive

Question: With `Nc1cc(Cl)c(N)c(Cl)c1` as the compound, how does the Potency read?
Answer: inactive

Question: Which Potency does the source give for `O=S1(=O)OC(c2ccc(O)cc2)(c2ccc(O)cc2)c2ccccc21` here?
Answer: active: 49 µM

Question: Which “activity change, negative = cytotoxic” value does the source give for `CC/C=C\CCCCCO` here?
Answer: inactive: 2.09%

Question: With `C=C1C2CCC(C2)C1(C)C` (centres undefined) as the compound, how does the Potency read?
Answer: inactive

Question: For `O=C(OCCOCCO)c1ccccc1Nc1cccc(C(F)(F)F)c1`, which “activity change, negative = cytotoxic” value is on record?
Answer: inactive: -20.1% [at 35.3 µM]

Question: Which Potency does the source give for `CN(C)c1ccc(C(=N)c2ccc(N(C)C)cc2)cc1` here?
Answer: inconclusive: 21.6 µM [cytotoxic, partial curve] and inconclusive: 21.1 µM [cytotoxic, partial curve]

Question: Which Potency does the source give for `COc1ccc(-c2coc3cc(O)cc(O)c3c2=O)cc1` here?
Answer: inconclusive: 55.4 µM [cytotoxic, partial curve]

Question: For `Oc1ccc2c(c1)-c1ccccc1C2`, which Potency is on record?
Answer: inconclusive: 54.9 µM [cytotoxic, partial curve, poor fit]

Question: Which Potency does the source give for `CO[C@@H]1[C@@H](OC)[C@H](C)[C@@](O)(CC(=O)O)O[C@H]1[C@H](C)[C@H]1O[C@@]2(CC[C@@](C)([C@H]3CC[C@@](C)([C@@H]4O[C@@H]([C@H]5O[C@](C)(O)[C@H](C)C[C@@H]5C)C[C@@H]4OC4C[C@H](OC)[C@@H](OC)[C@H](C)O4)O3)O2)C[C@H](O)[C@H]1C` (some centres undefined) here?
Answer: inconclusive: 6.01 µM [cytotoxic, partial curve]

Question: For `CCCCC(CC)COC(=O)/C=C\C(=O)OCC(CC)CCCC` (centres undefined), which Potency is on record?
Answer: inconclusive: 19.5 µM [cytotoxic, partial curve] and inconclusive: 24.5 µM [cytotoxic, partial curve]

Question: With `COC(=O)C1=C(C)NC(C)=C(C(=O)OCC(C)=O)C1c1ccccc1[N+](=O)[O-]` (centres undefined) as the compound, how does the Potency read?
Answer: inconclusive: 21.3 µM [cytotoxic, partial curve, poor fit]

Question: With `COc1cc(Nc2c(C#N)cnc3cc(OCCCN4CCN(C)CC4)c(OC)cc23)c(Cl)cc1Cl` as the compound, how does the Potency read?
Answer: inconclusive: 21.3 µM [cytotoxic, partial curve]

Question: Which Potency does the source give for `Cc1nccn1-c1ccc(Sc2cccc(C3(C(N)=O)CCOCC3)c2)cc1` here?
Answer: inconclusive: 43.6 µM [cytotoxic, partial curve, poor fit]

Question: For `c1cc(N(CC2CO2)CC2CO2)ccc1Cc1ccc(N(CC2CO2)CC2CO2)cc1` (centres undefined), which Potency is on record?
Answer: inconclusive: 49 µM [cytotoxic, single point]

Question: For `C=C1CC[C@H](O)CC1=C/C=C1\CCC[C@]2(C)[C@@H]([C@H](C)/C=C/[C@H](C)C(C)C)CC[C@@H]12`, which Potency is on record?
Answer: inconclusive: 54.9 µM [cytotoxic, partial curve, poor fit]

Question: For `CO[C@H]1C=CO[C@@]2(C)Oc3c(C)c(O)c4c(O)c(c5c(c4c3C2=O)=NC2(CCN(CC(C)C)CC2)N=5)NC(=O)/C(C)=C\C=C/[C@H](C)[C@H](O)[C@@H](C)[C@@H](O)[C@@H](C)[C@H](OC(C)=O)[C@@H]1C`, which Potency is on record?
Answer: inconclusive: 53.8 µM [cytotoxic, single point]

Question: For `CC(=O)OCC1=C(C(=O)O)N2C(=O)[C@@H](NC(=O)CSc3ccncc3)[C@H]2SC1`, which “activity change, negative = cytotoxic” value is on record?
Answer: inactive: -0.865% [at 35.3 µM]

Question: With `Nc1cccc2c(N)cccc12` as the compound, how does the Potency read?
Answer: inconclusive: 21.9 µM [cytotoxic, partial curve, poor fit]

Question: Which Potency does the source give for `O[C@@H](CNC[C@H](O)[C@H]1CCc2cc(F)ccc2O1)[C@@H]1CCc2cc(F)ccc2O1` here?
Answer: active: 21.3 µM
